The record followed here is US8592383B2, “Cycloalkyl-fused tetrahydroquinolines as CRTH2 receptor modulators” (Merck Sharp & Dohme Corp., priority 2011, dated 2013).

SMILES strings stand for the structures.

In this test the target is T1, hCRTH2 (Homo sapiens, UniProt Q9Y5Y4).
T1 sequence (Q9Y5Y4 1-395): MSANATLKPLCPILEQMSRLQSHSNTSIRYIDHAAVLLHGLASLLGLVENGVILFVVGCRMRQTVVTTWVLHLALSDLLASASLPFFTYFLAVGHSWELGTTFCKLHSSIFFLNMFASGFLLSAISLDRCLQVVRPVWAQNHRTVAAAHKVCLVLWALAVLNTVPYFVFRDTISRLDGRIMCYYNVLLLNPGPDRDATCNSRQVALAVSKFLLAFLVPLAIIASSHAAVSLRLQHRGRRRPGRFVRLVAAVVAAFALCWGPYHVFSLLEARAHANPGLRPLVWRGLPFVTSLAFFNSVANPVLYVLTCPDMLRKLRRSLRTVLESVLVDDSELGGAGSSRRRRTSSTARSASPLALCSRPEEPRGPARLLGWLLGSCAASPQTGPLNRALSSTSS
As to the kind of experiment: biochemical. As to conditions: Ki (nM), Table A; Radioligand Binding Assay A, [3H]PGD2, HEK-hCRTH2 membranes.
On to `O=C(O)COC(=O)N(C1CC1)[C@@H]1c2ccccc2N(C(=O)c2cc(F)cc(F)c2)[C@@H]2CCC[C@@H]21` (single isomer, unassigned) [32R, [[[cyclopropyl[cis, cis-4-(3,5-difluorobenzoyl)-2,3,3a-4,9,9a-hexahydro-1H-cyclopenta[b]quinolin-9-yl]amino]carbonyl]oxy]acetic acid], for which the Ki – broadly, a dissociation constant, usually derived from enzyme kinetics or from competition with a known ligand – was 5.1 to 20 nM.

Regarding `O=C(O)COC(=O)N(C1CC1)C1c2ccccc2N(C(=O)c2cccc(F)c2)C2CCCC21` (single isomer, unassigned) [32S, [[[cyclopropyl[cis, cis-4-(3-fluorobenzoyl)-2,3,3a,4,9,9a-hexahydro-1H-cyclopenta[b]quinolin-9-yl]amino]carbonyl]oxy]acetic acid], the Ki was 1 to 5 nM.

As for `O=C(O)COC(=O)N(C1CC1)[C@H]1c2cc(F)ccc2N(C(=O)c2ccc(OC(F)(F)F)cc2)[C@H]2CCC[C@H]21` (single isomer, unassigned) [32T], the Ki was in the range of 1 to 5 nM.

Consider `[2H]C1(N(C(=O)OCC(=O)O)C2CC2)c2ccccc2N(C(=O)c2ccc(OC(F)(F)F)cc2)C2CCCC21` (single isomer, unassigned) [32U, deuterated-[[[cyclopropyl[cis, cis-2,3,3a,4,9,9a-hexahydro-4-[4-(trifluoromethoxy)benzoyl]-1H-cyclopenta[b]quinolin-9-yl-(d)]amino]carbonyl]oxy]acetic acid], for which the Ki was 1 to 5 nM. The molecule `CN(CC(=O)O)C(=O)N(C1CC1)C1c2ccccc2N(C(=O)c2ccc(OC(F)(F)F)cc2)C2CCCC21` (single isomer, unassigned) [35H, N-[[cyclopropyl[cis, cis-2,3,3a,4,9,9a-hexahydro-4-[4-(trifluoromethoxy)benzoyl]-1H-cyclopenta[b]quinolin-9-yl]amino]carbonyl]-N-methylglycine] yielded a Ki of 5.1 to 20 nM. `CN(CC(=O)O)C(=O)N(C1CC1)C1c2ccccc2N(C(=O)c2cccs2)C2CCCC21` (single isomer, unassigned) [35J, N-[[cyclopropyl[cis, cis-2,3,3a,4,9,9a-hexahydro-4-(2-thienylcarbonyl)-1H-cyclopenta[b]quinolin-9-yl]amino]carbonyl]-N-methylglycine] displayed a Ki of 5.1 to 20 nM.

`CN(CC(=O)O)C(=O)N(C1CC1)C1c2ccccc2N(C(=O)c2cccc(OC(F)(F)F)c2)C2CCCC21` (single isomer, unassigned) [35i, N-[[cyclopropyl[cis, cis-2,3,3a,4,9,9a-hexahydro-4-[3-(trifluoromethoxy)benzoyl]-1H-cyclopenta[b]quinolin-9-yl]amino]carbonyl]-N-methylglycine] showed a Ki of 5.1 to 20 nM.

`O=C(O)COC(=O)N(C1CC1)C1c2ccccc2N(c2nnc(Cc3ccc(OC(F)(F)F)cc3)o2)C2CCCC21` (single isomer, unassigned) [38F, [[[cyclopropyl[cis,cis 2,3,3a,4,9,9a-hexahydro-4-[5-[[4-(trifluoromethoxy)phenyl]methyl]-1,3,4-oxadiazol-2-yl]-1H-cyclopenta[b]quinoline-9-yl]amino]carbonyl]oxy]acetic acid] came in with a Ki of 5.1 to 20 nM. Molecule `O=C(O)COC(=O)N(C1CC1)C1c2ccccc2N(c2nnc(Cc3ccc(OC(F)(F)F)cc3)o2)C2CCCC21` (single isomer, unassigned) [38G, [[[cyclopropyl[cis,cis-2,3,3a,4,9,9a-hexahydro-4-[5-[[4-(trifluoromethoxy)phenyl]methyl]-1,3,4-oxadiazol-2-yl]-1H-cyclopenta[b]quinoline-9-yl]amino]carbonyl]oxy]acetic acid] displayed a Ki of 201 to 7500 nM. The molecule `O=C(O)CCCN(C1CC1)C1c2ccc(F)cc2N(C(=O)OCc2ccccc2)C2CCC21` (single isomer, unassigned) [43B, 4-((cis, cis-3-(benzyloxycarbonyl)-5-fluoro-1,2,2a,3,8,8a-hexahydrocyclobuta[b]quinolin-8-yl)(cyclopropyl)amino) butanoic acid] yielded a Ki of 1 to 5 nM. The same measure for `O=C(O)CCCN(C1COC1)C1c2ccc(F)cc2N(C(=O)OCc2ccccc2)C2CCC21` (single isomer, unassigned) [43C, 4-((cis, cis-3-(benzyloxycarbonyl)-5-fluoro-1,2,2a,3,8,8a-hexahydrocyclobuta[b]quinolin-8-yl)(oxetan-3-yl)amino) butanoic acid]: 20.1 to 200 nM; for `O=C(O)CCCN(C1CC1)C1c2ccc(F)cc2N(C(=O)c2ccc(OC(F)(F)F)cc2)C2CCC21` (single isomer, unassigned) [44D, 4-(cyclopropyl(cis, cis-5-fluoro-3-(4-(trifluoromethoxy)benzoyl)-1,2,2a,3,8,8a-hexahydrocyclobuta[b]quinolin-8-yl)amino)butanoic acid]: 1 to 5 nM.

The molecule `CC12CCC1N(C(=O)OCc1ccccc1)c1ccccc1C2N(CCCC(=O)O)C1CC1` (single isomer, unassigned) [48C, 4-((cis, trans-3-(benzyloxycarbonyl)-8a-methyl-1,2,2a,3,8,8a-hexahydrocyclobuta[b]quinolin-8-yl)(cyclopropyl)amino) butanoic acid] gave a Ki of 201 to 7500 nM. The same measure for `O=C(O)CCC(=O)N(C1CC1)C1c2cc(Br)ccc2N(C(=O)c2ccc(OC(F)(F)F)cc2)C2CCCC21` (single isomer, unassigned) [49B, 4-[[cis, cis-7-bromo-2,3,3a,4,9,9a-hexahydro-4-[4-(trifluoromethoxy)benzoyl]-1H-cyclopenta[b]quinolin-9-yl]cyclopropylamino]-4-oxobutanoic acid]: 5.1 to 20 nM; for `O=C(O)CCC(=O)N(C1CC1)C1c2ccc(F)cc2N(C(=O)OCc2ccccc2)C2CCC21` (single isomer, unassigned) [compound 9, 3-(phenylmethyl) cis,cis-8-[(3-carboxy-1-oxopropyl)cyclopropylamino]-5-fluoro-2,2a,8,8a-tetrahydrocyclobuta[b]quinoline-3(1H)-carboxylate]: 5.1 to 20 nM; for `O=C(O)CCC(=O)N(C1CC1)[C@@H]1c2ccccc2N(CC(=O)Nc2ccc(F)cc2)[C@@H]2CCC[C@@H]21` (single isomer, unassigned) [compound 46, 4-[Cyclopropyl[cis,cis-4-[2-[(4-fluorophenyl)amino]-2-oxoethyl]-2,3,3a,4,9,9a-hexahydro-1H-cyclopenta[b]quinolin-9-yl]amino]-4-oxobutanoic acid]: 201 to 7500 nM. For `CC12CCC1N(C(=O)OCc1ccccc1)c1ccccc1C2N(CCCC(=O)O)C1CC1` (single isomer, unassigned) [compound 48, 4-((cis, cis-3-(benzyloxycarbonyl)-8a-methyl-1,2,2a,3,8,8a-hexahydrocyclobuta[b]quinolin-8-yl)(cyclopropyl)amino) butanoic acid], the Ki was in the range of 5.1 to 20 nM.

Turning to `O=C(O)CCC(=O)N(C1CC1)C1c2cc(Br)ccc2N(C(=O)OCc2ccc(F)cc2F)C2CCCC21` (single isomer, unassigned) [compound 49, 4-[(2,4-difluorophenyl)methyl] cis, cis-7-bromo-9-[(3-carboxy-1-oxopropyl)cyclopropylamino]-1,2,3,3a,9,9a-hexahydro-4H-cyclopenta[b]quinoline-4-carboxylate], the Ki was in the range of 20.1 to 200 nM.
